Test results from the RNAGym collection of RNA variant scans (doi:10.7554/elife.90254).
Read counts are not given, so values of variants with three or more changes are uncertain.

B1: LINE1-mini (parent)
chain: GGCAGAGCUCAACACAGCGUGGCAAAGUGGCUGUGGCUAGACUGCC

Variants of: B1
Assay: self-cleavage, relative activity (ratio to wild type); higher = more cleavage; in vitro, sequencing; the parent is a self-cleaving ribozyme

Variant	self-cleavage
GGCAGAGGUCAAGACACCUUGGCAAAGUGGCUUUGGCUAGACUGCC [C8G C13G G17C G19U G33U]	0.01
GGGAGAGCACAACACAGCGUGUCAAAGUGGCUGUGGCUACACUGCC [C3G U9A G22U G40C]	0.21
GGCAGAGCUCAAUACGCCGUGGCAAAGUGGCUGUGGCUAAACUGCC [C13U A16G G17C G40A]	0.21
GGCAGAGCUCAACACAGCGUGGCAAAGCAGCUGUGGCUAGACUCCC [U28C G29A G44C]	0.59
AGCAGAUCUCAACUCAGCGAGCCAAAGUGGCUGUGCCUGGACUACC [G1A G7U A14U U20A G22C G36C A39G G44A]	0.34
UGCAGAGCUCAACACAGCGUGGCAAAGUGGCUGCGGCUAGACAGCC [G1U U34C U43A]	0.07
GGCAGACCUCAACACAGAGUGGCAAAGUGGCUGUGGGUAGACUGCC [G7C C18A C37G]	0.03
GGCAGAACUCAACGAAGCGUGGCAAAGUGGCUUUGGCUAGACAGCC [G7A A14G C15A G33U U43A]	0.07
GGCAGAGCUCAACCCCGCUUGGCAAAGUGUCUGUGGCUAGACUGCA [A14C A16C G19U G30U C46A]	0.07
GGCAGAGCUCAACACGGCGUGGCAAAGUCGCUGUGGCUAGACUUCC [A16G G29C G44U]	0.2
ACCAGAGCUCAUCACAGCUUGGCAAAGUGGCUGUGGCUAGACUGCC [G1A G2C A12U G19U]	0.03
GGCAGAGAUCAAAACAGCGUGGCAAAGUGGGUUUCGCUAGACUGCC [C8A C13A C31G G33U G35C]	0.02
GGCAGAGCUGAACAAAGCUUGGCAAAGUGCCUGUGGCUAGAUUGCC [C10G C15A G19U G30C C42U]	0
GGCAGACAUCCACACAGCGUGGCACAGAGGCUGUGGCUAGACUGGC [G7C C8A A11C A25C U28A C45G]	0.01
GGCAGAGCUCGACACAGCGUGGCUCAGCGGCAGUUGCUAGGCUUCC [A11G A24U A25C U28C U32A G35U A41G G44U]	0.01
GGCAGAACUCAACACAGGGUGGCAAAGUGGCUGUGGCUAGAAUGCC [G7A C18G C42A]	0.07
GGCAGAGAUCAACACAGCAUGGCAAAGUGGCUGUGGCUGGACUGCC [C8A G19A A39G]	0.05
GGCAGAGCUCAGCACACCGUGGCAAAGUGGCUGUGGCUAGACUUCC [A12G G17C G44U]	0.01
GGCAGAGCUUACCACAGCGUGGAAAAGUGGUUGUGGCUAGAAUGCC [C10U A12C C23A C31U C42A]	0.01

Variant	self-cleavage
GGCAGAGCUCAACACAGCGUCUCAAAGUGGCUGUGGCUAGUCUGCC [G21C G22U A41U]	0.5
GGCAGAGCCCACCACAGUGUGCCAAAGUGGCUGUGGCUAGUCUGCC [U9C A12C C18U G22C A41U]	0.02
GGCGAAGCUCAAGACAGCGUGGCAAAGUGGCUGUGGCUAGACUGCC [A4G G5A C13G]	0.06
GGCAGAGCACAACACAGCGUAGCAAAGCGGCUGUGGCUAGUCUGCC [U9A G21A U28C A41U]	0.27
GGCAGAGAUCAACACAGCGUGGCAAAGUGACAGUGGCUAGACUGCC [C8A G30A U32A]	0.04
GGCAGAGCUCGAUACAGCGUGUCAAAGUGGCUGUGGCUAGACUGCC [A11G C13U G22U]	0.01
GGCAGAGCUCAACACAACCAGGCAAAGUGGCUGUGGCUAGACUGCC [G17A G19C U20A]	0.37
GGCAGAGCUCAACACAGCGUGGCAAAGUGGGUGUGGAUAGACUGCG [C31G C37A C46G]	0.03
GGCAGAGCUCAACACAGUACGGCAACGUGGCGGGGGCUAGACUGCC [C18U G19A U20C A26C U32G U34G]	0.03
GGCAGAGCUCAACACAGCGUGGCCAAGUGGCAGUGGGUAGACUGCC [A24C U32A C37G]	0
GGCAGAGCUCGACACAGCGUGGAAAAGUGGCUGUGGAUAGACUGCC [A11G C23A C37A]	0
GGCAGAGCUCAACACAGCGUGGCGUAGUGGCUGUUGCUAGACUGCC [A24G A25U G35U]	0.06
GGCAGAGCUCAACAAAGCGGGGCAAAGUGGCUGUCGAUAGACCGCC [C15A U20G G35C C37A U43C]	0.15
GGCAAAGCUCAACACAGCGUGUCUAAGUGGGUGUGGCUAGACUGCC [G5A G22U A24U C31G]	0.02
GGCAGAGCACAACCCAGAUUGGCAAAGUGGCUGUGGCUAGACUGCC [U9A A14C C18A G19U]	0.03
UGCAGAGCACAACACAGCGUGCCAAAGUGGCUGUGGCUAGACUGCC [G1U U9A G22C]	0.03
GACAGACCCCCACACAUCAUGGCAAAGUGGCUGUGUCUAGACUUCC [G2A G7C U9C A11C G17U G19A G36U G44U]	0.01
GGCAGAGUUCCACACAGCAUGGCAAAGUGGCUGUGGCUAUACUGCC [C8U A11C G19A G40U]	0.04
GGCAGAGCUCAACAGAGCGUGGCAUAGUGUCUGUGGCUAGACUGUC [C15G A25U G30U C45U]	0.02

Variant	self-cleavage
GGCAGAGCUGCACACAGCGUGGCAAAGUAGCUGUGCCUAGACUGCC [C10G A11C G29A G36C]	0.02
GGCAGAGCGCAACACAGCGUGGCAAAGUCGCAGUGGCUAGACUUCC [U9G G29C U32A G44U]	0.1
GGCGGAGCUCAACACAGCGUGACAAAGUAGCUGUGGCUAAACGGCC [A4G G22A G29A G40A U43G]	0.02
GGCAGAGCUCAACACAGCGUAGCAAAGUGGCGGUAGCUAGACUGCA [G21A U32G G35A C46A]	0.06
GGCAGAGCUCAACAAAUCGUGGCAAAGUGGCUGUGGUUAGACUGCC [C15A G17U C37U]	0
GGCAGAGCUCAACUCAGCGUGGCAAAUUGGCUGUGGCUAGACUACC [A14U G27U G44A]	0.12
GGCAGAGAUCAACACAGGGUGGUAAAGUAGCAGUGGCUAGACUGCC [C8A C18G C23U G29A U32A]	0.05
GGCAGGGCUCAACACAGCGUAUCAAAGUGGCUGUGGCUAGACUGCC [A6G G21A G22U]	0.09
GGCAGAGCUCAACUCAGCAUGGCAAAGUGGAUGUGGCUAGGCUGCC [A14U G19A C31A A41G]	0.01
GCCAGAUCUCAUCCCAGCGUGGCAAAGUGGCUGUGGCUAGACUGCC [G2C G7U A12U A14C]	0.16
GGCAGAGCUCUACACAUCGUGGCAAAGUGGCUGUUGCUAGACUGCU [A11U G17U G35U C46U]	0.01
GGCAGAGCUCAACACAGCGUGUCAAGGUGGCUGUGGCUAGACUCCC [G22U A26G G44C]	0.12
GGCAGGGCUCAACACAGCGUGGCAAGGUGGCUGUGGCUAGACUGGC [A6G A26G C45G]	0.11
GCCAGAGCUCAACACAGCGUGGCAAAGUGGCUGUGGCUGGUCUGCC [G2C A39G A41U]	0.01
GGCAGAGCUCAGCACAGCGUGGCAAAGUAGCUGUGGUUAGCCUGCC [A12G G29A C37U A41C]	0.01
GGCAGAGUUCAACAUAGCGUGGCAAAGUAGCUGAGGCUAGACUGGC [C8U C15U G29A U34A C45G]	0
GGCAUAGCUCAACACAGGGUGACAAAGUGGCAGUGGCUAGACUGCC [G5U C18G G22A U32A]	0.05
GGCAGAGCUCAACUUAGAGUGGCAAAGUCGCUGUGGCUAGACUGCC [A14U C15U C18A G29C]	0.04
